This is one part of the list.
Tests used:
HSkMC = human skeletal muscle cells; test: cytotoxicity call (relative viability < 0.9); conditions: 10 µM
HepG2 = test: cytotoxicity call (relative viability < 0.9); conditions: 10 µM
S. aureus RN4220 = test: growth inhibition call (relative growth <= 0.2); conditions: 50 µM

SMILES | cytotoxicity call (HSkMC) | cytotoxicity call (HepG2) | growth inhibition call (S. aureus RN4220)
C[C@@H]1CCCCO[C@@H](CN(C)Cc2ccc(C(F)(F)F)cc2)[C@H](C)CN([C@H](C)CO)C(=O)c2cc(NC(=O)C3CCCCC3)ccc2O1 | inactive | inactive | inactive
CC(C)(C)S(=O)N1Cc2cc(C(=O)NCc3ccc4c(c3)OCO4)nc(-c3cccc(C#CCC4CCCC4)c3)c2[C@@H]1CCO (stereo not given in full) | inactive | inactive | inactive
Cc1noc(C)c1NC(=O)N(C)C[C@@H]1Oc2ccc(NS(=O)(=O)c3ccccc3)cc2CC(=O)N([C@@H](C)CO)C[C@H]1C | inactive | inactive | inactive
CC(C)C[N+]1(C)Cc2ccccc2C1 | inactive | inactive | inactive
C[C@@H]1CN([C@H](C)CO)C(=O)Cc2cc(NC(=O)Nc3ccc(C(F)(F)F)cc3)ccc2O[C@@H]1CN(C)Cc1ccc(C(F)(F)F)cc1 | active | active | inactive
C[C@H]1CN([C@@H](C)CO)C(=O)c2cc(C3=CCCC3)cnc2O[C@@H]1CN(C)S(=O)(=O)c1cn(C)cn1 | inactive | inactive | inactive
Cc1noc(C)c1NC(=O)N(C)C[C@H]1OCCCC[C@@H](C)Oc2ccc(NC(=O)Cc3ccccc3)cc2C(=O)N([C@@H](C)CO)C[C@H]1C | inactive | inactive | inactive
COc1ccc(CN(C)C[C@H]2Oc3ccc(NS(=O)(=O)c4cn(C)cn4)cc3CC(=O)N([C@@H](C)CO)C[C@H]2C)cc1 | inactive | inactive | inactive
C[C@@H]1CN([C@@H](C)CO)C(=O)c2cccc(NC(=O)C3CCOCC3)c2O[C@@H]1CN(C)S(=O)(=O)c1ccc(Cl)cc1 | inactive | inactive | inactive
C[C@H]1CCCCO[C@@H](CN(C)C(=O)NC2CCCCC2)[C@@H](C)CN([C@@H](C)CO)C(=O)c2cc(NC(=O)CCC(F)(F)F)ccc2O1 | inactive | inactive | inactive
COc1ccc(NC(=O)Nc2ccc3c(c2)[C@H]2C[C@@H](CC(=O)NCc4ccccn4)O[C@H](CO)[C@H]2O3)cc1 | inactive | inactive | inactive
Cc1noc(C)c1NC(=O)N(C)C[C@H]1OCCCC[C@@H](C)Oc2ccc(NC(=O)Nc3cccc4ccccc34)cc2C(=O)N([C@H](C)CO)C[C@@H]1C | inactive | inactive | inactive
C[C@@H]1CN([C@H](C)CO)C(=O)c2cc(NC(=O)c3ccncc3)ccc2O[C@H]1CN(C)Cc1ccc(-c2ccccc2)cc1 | inactive | active | inactive
C[C@H](CO)N1C[C@H](C)[C@H](CN(C)C(=O)c2ccncc2)Oc2cc(-c3cccc(C#N)c3)ccc2S1(=O)=O | inactive | inactive | inactive
C[C@H]1CN([C@@H](C)CO)C(=O)c2cc(NC(=O)Nc3cccc4ccccc34)ccc2O[C@H]1CN(C)Cc1ccc(C(=O)O)cc1 | inactive | inactive | inactive
CC(C)(C)OC(=O)NC(=NCCn1cc(-c2cccc(/C=C/C(=O)NO)c2)nn1)NC(=O)OC(C)(C)C | inactive | inactive | inactive
COCC#Cc1ccc2c(c1)O[C@@H](CN(C)C(=O)Nc1ccc(OC)cc1)[C@@H](C)CN([C@H](C)CO)S2(=O)=O | inactive | inactive | inactive
COc1ccc(NC(=O)Nc2ccc3c(c2)C(=O)N([C@@H](C)CO)C[C@H](C)[C@H](CN(C)Cc2ccc(C(=O)O)cc2)OCCCC[C@H](C)O3)cc1 | inactive | inactive | inactive
C[C@@H]1CN([C@@H](C)CO)C(=O)Cc2cc(NC(=O)c3ccncc3)ccc2O[C@H]1CN(C)S(=O)(=O)c1ccc(F)cc1 | inactive | inactive | inactive
CC(C)NC(=O)N(C)C[C@H]1Oc2ccc(NC(=O)CCC(F)(F)F)cc2C(=O)N([C@H](C)CO)C[C@@H]1C | inactive | inactive | inactive
Cc1ccc(CNC[C@H]2Cn3nncc3CO2)o1 | inactive | inactive | inactive
C[C@H]1CCCCO[C@H](CN(C)Cc2ccc(C(F)(F)F)cc2)[C@@H](C)CN([C@@H](C)CO)C(=O)c2cc(NS(=O)(=O)c3cn(C)cn3)ccc2O1 | inactive | inactive | inactive
C[C@H](CO)N1C[C@H](C)[C@@H](CN(C)C(=O)Nc2ccc(C(F)(F)F)cc2)Oc2ccc(NC(=O)CCC(F)(F)F)cc2C1=O | inactive | inactive | active
COc1c2ccoc2cc2oc(C)cc(=O)c12 | inactive | inactive | inactive
Cc1noc(C)c1NC(=O)N(C)C[C@H]1Oc2c(NC(=O)C3CCOCC3)cccc2C(=O)N([C@@H](C)CO)C[C@H]1C | inactive | inactive | inactive

From the antibiotic and cytotoxicity screens of Wong et al. (2023)
